Values joined by “and” are separate entries in the source; they are usually repeats but may differ in a detail not shown here. Equal values may be shown once. Screen size: about 420,000 compounds; about 64,000 (15%) were called active. The inconclusive results got no clear call from the source; some entries with a clear call stand among them for comparison. Calls come from the whole dose curve; as a rule, active = well fitted inhibition curve with a large enough effect; inconclusive = small, poorly fitted or top-dose-only effect; inactive = flat fitted curve, though single readings scatter. Where the call is inconclusive, the potency comes from a doubtful curve fit.
Test: qHTS for Inhibitors of human tyrosyl-DNA phosphodiesterase 1 (TDP1): qHTS in cells in absence of CPT; note: nearly all actives have a fitted effect of over 55% in size
Settings: DT40 Tdp1-/- hTDP1 cells, no CPT, ATP luminescence, 48 h; activity change, negative = growth inhibition: at 46.2 µM (top of the series)
How it was run: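 No-CPT arm: Tdp1-/-;hTDP1 DT40 cells (400/well) plus compounds, incubated ≥48 hr at 37 °C. Readout CellTiter-Glo luminescence.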
% is set by controls: 0 for no effect and ±100 for the full control effect; potency is the fitted concentration of half-maximal effect; tags give direction and shape of the fitted curve.

Row | SMILES | activity change, negative = growth inhibition | Potency
1 | COc1ccc(NC(=O)CN2CCC(C(N)=O)(N3CCCCC3)CC2)c(OC)c1 | inactive: 4.84% | 
2 | CN(CC(=O)Nc1ccc(F)cc1)C(=O)CN1C(=O)NC2(CCCC2)C1=O |  | inconclusive: 29.1 µM [inhibitor, single point]
3 | Cc1ccc(C)c(Nc2cc(C(=O)NCc3cccnc3)c3ccccc3n2)c1 |  | inconclusive: 23.1 µM [inhibitor, single point]
4 | C[C@@H]1OC(OC2CC[C@@]3(C)C(CC[C@@]4(C)C3CC=C3C5CC(C)(C)CC[C@]5(C(=O)OC5OCC(O)[C@@H](O)[C@@H]5OC5O[C@@H](C)[C@H](O[C@H]6OC(CO)C(O)C(O)C6O)C(O)C5O)C(O)C[C@@]34C)C2(C)C)C(O)C(O)[C@H]1OC1OCC(O)C(O)[C@H]1O (stereo partly specified) |  | inconclusive: 13 µM [inhibitor, partial curve, poor fit]
5 | CC(C)NC(=O)CN1CCN(C(=O)c2ccc3oc(CCCc4ccccc4)nc3c2)CC1 | inactive: -6.15% | 
6 | CN(C)c1ccc(/C(=N\O)C(F)(F)F)cc1 |  | inconclusive: 20.6 µM [inhibitor, single point]
7 | COc1cc(C(=O)Nc2ccc3c(c2)nc(C)n3C)cc(OC)c1OC |  | active: 3.26 µM
8 | COc1ccc(Br)cc1/C=N/NC(=O)C[n+]1ccccc1 |  | active: 13 µM
9 | CCC(C(=O)N1CCN(c2ccccc2OC)CC1)c1ccccc1 (stereo unspecified) |  | inconclusive: 29.1 µM [inhibitor, single point]
10 | O=C(CSc1cccc[n+]1[O-])Nc1cc2c(cc1Cl)C(=O)c1ccccc1C2=O |  | inconclusive: 29.1 µM [inhibitor, single point]
11 | Cc1ccc2c3c(cccc13)-c1ccccc1C2=O |  | inconclusive: 16.4 µM [inhibitor, single point]
12 | O=C(O)c1ccc(-n2nnnc2SCc2ccccc2Br)cc1 | inactive: 6.26% | 
13 | NC(=O)[C@H]1CC2(CC(c3cccc(NC(=O)COc4ccc(Cl)cc4)c3)=NO2)CN1C(=O)C(c1ccccc1)c1ccccc1 (stereo partly specified) |  | active: 13 µM
14 | CC(C)C(=O)Nc1cccc(C(=O)Nc2ccc3c(c2)OCO3)c1 |  | inconclusive: 18.4 µM [inhibitor, single point]
15 | Cc1cc(Sc2ncnc(N)c2[N+](=O)[O-])ncn1 |  | active: 0.92 µM
16 | COc1ccc(COC(=O)C2CCN(C(=O)c3ccc(Cl)cc3)CC2)cc1F |  | inconclusive: 25.9 µM [inhibitor, single point]
17 | CCCCc1ccc(S(=O)(=O)N2CCC3(CC2)OCCO3)cc1 |  | inconclusive: 20.6 µM [inhibitor, single point]
18 | COc1ccc2c(=O)c3ccccc3oc2c1 |  | inactive and inconclusive: 25.1 µM [inhibitor, single point]
19 | O=C(CN1C(=O)S/C(=C\c2ccc(O)cc2)C1=O)c1ccccc1 |  | inconclusive: 14.6 µM [inhibitor, partial curve]
20 | O=[N+]([O-])c1ccccc1S(=O)(=O)Nc1ccc(-c2ccc(N3CCCC3)nn2)cc1 | inactive: -13.1% | 
21 | C=C(C)C1CC=C(C)/C(=N\NC(=O)CNc2ccccc2OC)C1 (stereo unspecified) |  | inconclusive: 29.1 µM [inhibitor, single point]
22 | Cc1ccc(F)cc1C(=O)N1CCCCC1c1cc(C(=O)NCc2ccccc2)no1 (stereo unspecified) |  | inconclusive: 14.6 µM [inhibitor, partial curve]
23 | C=CS(=O)(=O)N(Cc1ccccc1Br)[C@H](CO)CC(C)C |  | active: 10 µM

Row | SMILES | activity change, negative = growth inhibition | Potency
24 | CC1CCCN(C2=C(NS(=O)(=O)c3ccc(Cl)cc3)C(=O)c3ccccc3C2=O)C1 (stereo unspecified) |  | inconclusive: 29.1 µM [inhibitor, single point]
25 | CCCN(C(=O)COc1ccc(C(C)=O)cc1OC)C1CCS(=O)(=O)C1 (stereo unspecified) | inactive: 16.6% | 
26 | Cc1ccc(C(=O)Nc2c(-c3ccccc3)nc3ccccn23)cc1 | inactive: -23.1% | 
27 | O=C(NCC1CCCO1)C(=O)NCC1CCCN1S(=O)(=O)c1ccccc1 (stereo unspecified) | inactive: -10.1% | 
28 | CC(=O)c1ccc(S(=O)(=O)N2CCC3(CC2)CC(=O)c2ccccc2O3)cc1 |  | inconclusive: 16.4 µM [inhibitor, single point]
29 | CC(C)N(Cc1ccccc1)S(=O)(=O)c1cccs1 |  | active: 25.9 µM
30 | COc1ccc(S(=O)(=O)N(C)c2ccc(C(=O)N3CCCC3)cc2)cc1 |  | inconclusive: 29.1 µM [inhibitor, single point]
31 | O=C(CCc1nc(-c2ccccc2)no1)NC1CCCCC1 | inactive: -17% | 
32 | Cc1ccc(C(=O)CCC(=O)Nc2cc(C)ccn2)cc1 | inactive: -4.28% | 
33 | O=C(CN1CC(=O)Oc2ccccc21)OCC(=O)c1cccc(Br)c1 | inactive: -26.3% | 
34 | Cc1cc(Nc2ccc(C(C)C)cc2)n2ncnc2n1 |  | inconclusive: 29.1 µM [inhibitor, single point]
35 | NC(=O)c1nsc(C(=O)N(Cc2cccnc2)C(C(=O)NCc2ccc(F)cc2)c2ccc(F)cc2)c1N (stereo unspecified) | inactive: -25.2% | 
36 | O=C(Cn1cnc2c(NCc3ccccc3)ncnc21)NCc1ccc2[nH]ccc2c1 | inactive: -4.42% | 
37 | CC(C)CNC(=S)Nc1ccc(F)cc1 |  | inconclusive: 29.1 µM [inhibitor, single point]
38 | C[C@@H]1CN([C@H](C)CO)C(=O)CCCn2cc(nn2)CO[C@H]1CN(C)C(=O)CCC(F)(F)F | inactive: -20.3% | 
39 | CC(C)NS(=O)(=O)c1ccc(NC(=O)C(C)OC(=O)C2CCC2)cc1 (stereo unspecified) | inactive: -22.2% | 
40 | COCCNc1nnc(SCC(=O)c2c[nH]c3ccccc23)s1 |  | inconclusive: 23.1 µM [inhibitor, single point]
41 | CN(CC(=O)Nc1ccc(N2CCOCC2)cc1)C(=O)CSc1ccc(Br)cc1 |  | active: 14.6 µM
42 | O=C(Nc1ccc(OCC(F)(F)C(F)F)cc1)c1ccncc1 |  | inconclusive: 14.6 µM [inhibitor, partial curve]
43 | CC(C)C(=O)Nc1cccc(NC(=S)NC(=O)c2ccc([N+](=O)[O-])cc2)c1 | inactive: -10.6% | 
44 | CC(C)c1nc2scc(-c3ccc(Cl)cc3)c2c(=O)n1N |  | inconclusive: 25.9 µM [inhibitor, single point]
45 | O=C(CCNS(=O)(=O)c1ccccc1)OCc1nc2ccsc2c(=O)[nH]1 | inactive: 9.7% | 
46 | Cc1ccc(CCNC(=O)C2CCN(S(=O)(=O)N3CCCC3)CC2)cc1 |  | inconclusive: 29.1 µM [inhibitor, single point]
